Variants at the background level are over-represented here.
B1: TPR 5TU (parent)
chain: GGAUCUUCUCGAUCUAACAAAAAAGACAAAUCUGCCACAAAGCUUGAGAGCAUCUUCGGAUGCAGAGGCGGCAGCCUUCGGUGGCGCGAUAGCGCCAACGUUCUCAACUAUGACACGCAAAACGCGUGCUCCGUUGAAUGGAGUUUAUCAUG

Variants of: B1
Experiment: polymerase ribozyme fitness, log enrichment relative to wild type (log ratio); higher = more active; in vitro selection for triplet polymerase activity
Procedure, shortened: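 A heterodimeric triplet polymerase ribozyme had each of its subunits mutagenized by PCR into a library, which was transcribed. One round of in vitro selection, done in triplicate, annealed each library with a biotinylated primer, its partner subunit and triplets, then incubated it frozen at −7 °C before gel excision of extended constructs, streptavidin-bead capture and RT-PCR. Fitness is the logarithm of genotype enrichment relative to wild-type enrichment, based on Illumina sequencing of inputs and outputs and inverse-variance-weighted replicate averages. A base-2 logarithm is used, and genotypes were kept only with ≥10 input reads and ≥1 read per output.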

Question: Which “polymerase ribozyme fitness (log ratio)” value does the source give for GGAUCUUCUCGAUCUAACAAAAAAGACAAAUCUGCCACAAAGCUUGAGAGCAUCUUCGGAUGCAGAGUCGGCAGCCUUCGGUGGCGCGAUAGCGCCAAUGUUCUCAACUAUGACACCCAAAACGCGUGCUCCGUUGAAUGGAAUUUAUCAUG [G68U C99U G117C G143A] here?
Answer: ≤ -4.2

Question: Which “polymerase ribozyme fitness (log ratio)” value does the source give for GGAUCUUCUCGAUCUAACAAAAAAGACAAAUCUGCCACAAAGCUUGAGAGCAUCUUCGGAUGCAGAGUCGGCAGCCUUCGGUGGCGCGAUAGCGCCAAUGUUCUCAACUAUGACACGCAAAACCCGUGCUCCGUUGAAUGGAGUUUAUCAUG [G68U C99U G124C] here?
Answer: ≤ -4.2

Question: For GGAUCUUCUCGAUCUAACAAAAAAGACAAAUCUGCCACAAAGCUUGAGAGCAUCUUCGGAUGCAGAGUCGGCAGCCUUCGGUGGCGCGAUAGCGCCAACGUUCUCAACUAUGACACGCAAAACGCGUGCUCUGUAGAAUGGAGUUUAUCAUG [G68U C132U U135A], which “polymerase ribozyme fitness (log ratio)” value is on record?
Answer: ≤ -4.2

Question: Which “polymerase ribozyme fitness (log ratio)” value does the source give for GGAUCUUCUCGAUCUAACAAAAAAGACAAAUCUGCCACAAAGCUUGAGAGCAUCUUCGGAUGCAGAGUCGGCAGCCUUCGGUGGCGCGAUAGCGCCAACGUUCUCAACUAUGACACGCAAAACGCGUGCUCCGUUGAAUGGAGUUUAUGAUG [G68U C149G] here?
Answer: ≤ -4.2

Question: With GGAUCUUCUCGAUCUAACAAAAAAGACAAAUCUGCCACAAAGCUUGAGAGCAUCUUCGGAUGCAGAGUCGUCAGCCUUCGGUGGCGCGAUAGCGCCAACGUUCUCAACUAUGACACGCAAAACGCGUGCUCCGUUGAAUGCAGUUUAUCAUG [G68U G71U G141C] as the variant, how does the “polymerase ribozyme fitness (log ratio)” value read?
Answer: ≤ -4.2

Question: With GGAUCUUCUCGAUCUAACAAAAAAGACAAAUCUGCCACAAAGCUUGAGAGCAUCUUCGGAUGCAGAGUCGGCAGCCUUCCGUGGCGCGAUAGCGCCAACGGUCUCAACUAUGACGCGCAAAACGCGUGCUCUGUUGAAUGGAGCUUAUCAUG [G68U G80C U101G A115G C132U U144C] as the variant, how does the “polymerase ribozyme fitness (log ratio)” value read?
Answer: ≤ -4.2

Question: For GGAUCUUCUCGAUCUAACAAAAAAGACAAAUCUGCCACAAAGCUUGAGAGCAUCUUCGGAUGCAGAGUCGGCAGCCUUCUGUGGGGCGAUAGCGCCAACGUUCUCAACUAUGACACGCAAAACGCGUGCUCCGUUGAAUGGAGUUUAUCAUG [G68U G80U C85G], which “polymerase ribozyme fitness (log ratio)” value is on record?
Answer: ≤ -4.2

Question: For GGAUCUUCUCGAUCUAACAAAAAAGACAAAUCUGCCACAAAGCUUGAGAGCAUCUUCGGAUGCAGAGUCGGCAGCCUUCGGUGGCGCCAUAGCGCCAACGUUCUCAACUAUGACACGCAAAACGCGUGCUCCGUUGAAUGGAGUUUAUCAUG [G68U G88C], which “polymerase ribozyme fitness (log ratio)” value is on record?
Answer: ≤ -4.2

Question: For GGAUCUUCUCGAUCUAACAAAAAAGACAAAUCUGCCACAAAGCUUGAGAGCAUCUUCGGAUGCAGAGUCGGCAGCCUUCGGUGGCGCCAUAGCGCCAACGUUCUCAACUAUCACACGCAAAACGCGUGCUCCGUUGAAUCGAGUUUAUCAAG [G68U G88C G112C G140C U151A], which “polymerase ribozyme fitness (log ratio)” value is on record?
Answer: ≤ -4.2

Question: With GGAUCUUCUCGAUCUAACAAAAAAGACAAAUCUGCCACAAAGCUUGAGAGCAUCUUCGGAUGCAGAGUCGGCAGCCUUCGGUGGCGCGAUACCGCCAACGUUCUCAACUAUGACACGCAAAACGCGUGCUCCGUUGAAUGGAGUUUAUCAUG [G68U G92C] as the variant, how does the “polymerase ribozyme fitness (log ratio)” value read?
Answer: ≤ -4.2

Question: For GGAUCUUCUCGAUCUAACAAAAAAGACAAAUCUGCCACAAAGCUUGAGAGCAUCUUCGGAUGCAGAGUCGGCAGCCUUCGGUGGCGCGAUACCGCCAACGUUCUCAACUAUGACACGCAAAACGCGUGCUCCGUUGAAUGGAUUUUAUCAUG [G68U G92C G143U], which “polymerase ribozyme fitness (log ratio)” value is on record?
Answer: ≤ -4.2

Question: With GGAUCUUCUCGAUCUAACAAAAAAGACAAAUCUGCCACAAAGCUUGAGAGCAUCUUCGGAUGCAGAGUCGGCAGCCUUCGGUGGCGCGAUAGCCACAACGUUCUCAACUAUGACUCGCAAAACGCGUGCUCCGUUUAAUGGAGUUUAUCAUG [G68U G94C C95A A115U G136U] as the variant, how does the “polymerase ribozyme fitness (log ratio)” value read?
Answer: ≤ -4.2

Question: For GGAUCUUCUCGAUCUAACAAAAAAGACAAAUCUGCCACAAAGCUUGAGAGCAUCUUCGGAUGCAGAGUCGGCAGCCUUCGGUGGCGCGAUAGCGCCAACGUUCUCAACUAUGACACGCAAAACGCGUGCUCCUUUGAAUGGAGUUUAUCAUG [G68U G133U], which “polymerase ribozyme fitness (log ratio)” value is on record?
Answer: ≤ -4.2

Question: For GGAUCUUCUCGAUCUAACAAAAAAGACAAAUCUGCCACAAAGCUUGAGAGCAUCUUCGGAUGCAGAGUCGGCAGCCUUCGGUGGCGCGAUAGCGCCAACGUUCUCAACUAUGACACGCAAAACGCGUGCUCCGUUAAAUGGAGUUUAUCAUG [G68U G136A], which “polymerase ribozyme fitness (log ratio)” value is on record?
Answer: -3.9

Question: Which “polymerase ribozyme fitness (log ratio)” value does the source give for GGAUCUUCUCGAUCUAACAAAAAAGACAAAUCUGCCACAAAGCUUGAGAGCAUCUUCGGAUGCAGAGUCGGCAGCCAUCGGUGGCGCGAUAGCGCUAACGUUCUCAACUAUGACACGCAAAACGCGUGCUCCGUUGAAUGGAGUUUAUCAUG [G68U U77A C96U] here?
Answer: ≤ -4.2

Question: For GGAUCUUCUCGAUCUAACAAAAAAGACAAAUCUGCCACAAAGCUUGAGAGCAUCUUCGGAUGCAGAGUCGGCAGCCGUCAGUGGCGCGAUAGCGCCAACGUUCUCAACUAUGACACGCAAAACGCGUGCUCCGUUGAAUGGAGUUUAUCAUG [G68U U77G G80A], which “polymerase ribozyme fitness (log ratio)” value is on record?
Answer: ≤ -4.2

Question: Which “polymerase ribozyme fitness (log ratio)” value does the source give for GGAUCUUCUCGAUCUAACAAAAAAGACAAAUCUGCCACAAAGCUUGAGAGCAUCUUCGGAUGCAGAGUCGGCAGCCUUCGGUGGCGCGAUAGCGCCAACGUUCUCAACGAUGACACGCAAAACCCGUGCUCCGUUGAAUGGAGUUUAUCAUG [G68U U109G G124C] here?
Answer: ≤ -4.2

Question: For GGAUCUUCUCGAUCUAACAAAAAAGACAAAUCUGCCACAAAGCUUGAGAGCAUCUUCGGAUGCAGAGUCGGCAGCCUUCGGUGGCGCGAUAGCGCCAACGUUCUCAACUAUGACACGCAAAACGCGUGCUCCGGUGAAUGGAGUUUAUCAUG [G68U U134G], which “polymerase ribozyme fitness (log ratio)” value is on record?
Answer: ≤ -4.2

Question: Which “polymerase ribozyme fitness (log ratio)” value does the source give for GGAUCUUCUCGAUCUAACAAAAAAGACAAAUCUGCCACAAAGCUUGAGAGCAUCUUCGGAUGCAGAGGAGGCCGCCUUCGGUGGCACGAUAGCGCCAACGUUCUCAACUAUGACACGCCAAACGCGUGCUCCGUUGAAUGGAGUAUAUCAUG [C69A A73C G86A A119C U145A] here?
Answer: ≤ -4.2

From the RNAGym collection of RNA variant scans (doi:10.1073/pnas.2313332121)
